The supplement of paper PMC8728848
Some of the results follow.

Experiments:
Assay in all cases: glycan array binding signal (z-score within array); higher = stronger binding
Conditions in all cases: glycan notation: IUPAC condensed, linker removed
[1] = molecular target: Neu5Ac(a2-3)Gal(b1-4)GlcNAc6S
Outline: (§1)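 Negative Z-scores can be read as non-binding. The Z-score is calculated within each array and then averaged across arrays of one protein sequence at different concentrations or buffers and across linkers. Arrays, 3228 in all, were curated from the Consortium for Functional Glycomics database and kept only where the protein sequence was available.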

[2] = molecular target: Neu5Ac(a2-3)Gal(b1-4)[Fuc(a1-3)]GlcNAc
Outline: as §1

[3] = molecular target: Neu5Ac(a2-3)Gal(b1-4)[Fuc(a1-3)]GlcNAc(b1-3)Gal
Outline: as §1

[4] = molecular target: Neu5Ac(a2-3)Gal(b1-4)[Fuc(a1-3)]GlcNAc(b1-3)Gal(b1-4)GlcNAc
Outline: as §1

[5] = molecular target: Neu5Ac(a2-3)Gal(b1-4)[Fuc(a1-3)]GlcNAc(b1-3)Gal(b1-4)[Fuc(a1-3)]GlcNAc(b1-3)Gal(b1-4)[Fuc(a1-3)]GlcNAc
Outline: as §1

[6] = molecular target: Neu5Ac(a2-3)Gal(b1-4)[Fuc(a1-3)]GlcNAc6S
Outline: as §1

[7] = molecular target: Neu5Ac(a2-3)Gal6S(b1-4)GlcNAc
Outline: as §1

[8] = molecular target: Neu5Ac(a2-3)Gal6S(b1-4)[Fuc(a1-3)]GlcNAc
Outline: as §1

Neu5Ac(a2-3)GalNAc = molecular target: Neu5Ac(a2-3)GalNAc
Outline: as §1

[9] = molecular target: Neu5Ac(a2-3)GalNAc(b1-4)GlcNAc
Outline: as §1

[10] = molecular target: Neu5Ac(a2-3)[GalNAc(b1-4)]Gal(b1-4)Glc
Outline: as §1

[11] = molecular target: Neu5Ac(a2-3)[GalNAc(b1-4)]Gal(b1-4)GlcNAc
Outline: as §1

[12] = molecular target: Neu5Ac(a2-3)[Neu5Ac(a2-6)]GalNAc
Outline: as §1

[13] = molecular target: Neu5Ac(a2-6)Gal(b1-4)GlcNAc
Outline: as §1

[14] = molecular target: Neu5Ac(a2-6)Gal(b1-4)GlcNAc(b1-2)Man(a1-3)[Neu5Ac(a2-6)Gal(b1-4)GlcNAc(b1-2)Man(a1-6)]Man(b1-4)GlcNAc(b1-4)GlcNAc
Outline: as §1

[15] = molecular target: Neu5Ac(a2-6)Gal(b1-4)GlcNAc(b1-3)Gal(b1-4)GlcNAc
Outline: as §1

[16] = molecular target: Neu5Ac(a2-6)Gal(b1-4)GlcNAc(b1-3)Gal(b1-4)[Fuc(a1-3)]GlcNAc(b1-3)Gal(b1-4)[Fuc(a1-3)]GlcNAc
Outline: as §1

[17] = molecular target: Neu5Ac(a2-6)Gal(b1-4)GlcNAc6S
Outline: as §1

Neu5Ac(a2-6)GalNAc = molecular target: Neu5Ac(a2-6)GalNAc
Outline: as §1

[18] = molecular target: Neu5Ac(a2-6)GalNAc(b1-4)GlcNAc
Outline: as §1

Neu5Ac(a2-8)Neu5Ac = molecular target: Neu5Ac(a2-8)Neu5Ac
Outline: as §1

[19] = molecular target: Neu5Ac(a2-8)Neu5Ac(a2-3)Gal(b1-4)Glc
Outline: as §1

[20] = molecular target: Neu5Ac(a2-8)Neu5Ac(a2-3)[GalNAc(b1-4)]Gal(b1-4)Glc
Outline: as §1

[21] = molecular target: Neu5Ac(a2-8)Neu5Ac(a2-8)Neu5Ac
Outline: as §1

[22] = molecular target: Neu5Ac(a2-8)Neu5Ac(a2-8)Neu5Ac(a2-3)Gal(b1-4)Glc
Outline: as §1

[23] = molecular target: Neu5Ac(a2-8)Neu5Ac(a2-8)Neu5Ac(a2-3)[GalNAc(b1-4)]Gal(b1-4)Glc
Outline: as §1

[24] = molecular target: Neu5Ac(a2-8)Neu5Ac(a2-8)Neu5Ac(a2-8)Neu5Ac(a2-3)[GalNAc(b1-4)]Gal(b1-4)Glc
Outline: as §1

[25] = molecular target: Neu5Ac9Ac(a2-6)Gal(b1-4)GlcNAc
Outline: as §1

[26] = molecular target: Neu5Gc(a2-3)Gal(b1-3)GlcNAc
Outline: as §1

[27] = molecular target: Neu5Gc(a2-3)Gal(b1-3)[Fuc(a1-4)]GlcNAc
Outline: as §1

Neu5Gc(a2-3)Gal(b1-4)Glc = molecular target: Neu5Gc(a2-3)Gal(b1-4)Glc
Outline: as §1

[28] = molecular target: Neu5Gc(a2-3)Gal(b1-4)GlcNAc
Outline: as §1

[29] = molecular target: Neu5Gc(a2-3)Gal(b1-4)[Fuc(a1-4)]GlcNAc
Outline: as §1

[30] = molecular target: Neu5Gc(a2-6)Gal(b1-4)GlcNAc
Outline: as §1

Neu5Gc(a2-6)GalNAc = molecular target: Neu5Gc(a2-6)GalNAc
Outline: as §1

B1: HMGB1 (Rattus norvegicus), P63159 (protein)
chain: MGKGDPKKPRGKMSSYAFFVQTCREEHKKKHPDASVNFSEFSKKCSERWKTMSAKEKGKFEDMAKADKARYEREMKTYIPPKGETKKKFKDPNAPKRPPSAFFLFCSEYRPKIKGEHPGLSIGDVAKKLGEMWNNTAADDKQPYEKKAAKLKEKYEKDIAAYRAKGKPDAAKKGVVKAEKSKKKKEEEDDEEDEEDEEEEEEEEDEDEEEDDDDE
[1]
  glycan array binding signal (z-score): -0.935
[2]
  glycan array binding signal (z-score): -0.141
[3]
  glycan array binding signal (z-score): -0.541
[4]
  glycan array binding signal (z-score): -0.249
[5]
  glycan array binding signal (z-score): -0.616
[6]
  glycan array binding signal (z-score): -0.331
[7]
  glycan array binding signal (z-score): 0.304
[8]
  glycan array binding signal (z-score): -0.364
Neu5Ac(a2-3)GalNAc
  glycan array binding signal (z-score): 0.199
[9]
  glycan array binding signal (z-score): -0.409
[10]
  glycan array binding signal (z-score): -0.521
[11]
  glycan array binding signal (z-score): -0.461
[12]
  glycan array binding signal (z-score): -0.263
[13]
  glycan array binding signal (z-score): 0.763
[14]
  glycan array binding signal (z-score): -0.217
[15]
  glycan array binding signal (z-score): -0.446
[16]
  glycan array binding signal (z-score): 0.178
[17]
  glycan array binding signal (z-score): -0.168
Neu5Ac(a2-6)GalNAc
  glycan array binding signal (z-score): -0.046
[18]
  glycan array binding signal (z-score): 2.1
Neu5Ac(a2-8)Neu5Ac
  glycan array binding signal (z-score): -0.048
[19]
  glycan array binding signal (z-score): -0.521
[20]
  glycan array binding signal (z-score): -0.222
[21]
  glycan array binding signal (z-score): -0.597
[22]
  glycan array binding signal (z-score): -0.669
[23]
  glycan array binding signal (z-score): -0.394
[24]
  glycan array binding signal (z-score): -0.478
[25]
  glycan array binding signal (z-score): 0.467
[26]
  glycan array binding signal (z-score): -0.317
[27]
  glycan array binding signal (z-score): 2.69
Neu5Gc(a2-3)Gal(b1-4)Glc
  glycan array binding signal (z-score): -0.574
[28]
  glycan array binding signal (z-score): 0.031
[29]
  glycan array binding signal (z-score): 1.13
[30]
  glycan array binding signal (z-score): -0.02
Neu5Gc(a2-6)GalNAc
  glycan array binding signal (z-score): -0.619
